Measured values reported in patent US20260200947A1, “FUSED CYCLIC COMPOUNDS AND USE THEREOF” (Jacobio Pharmaceuticals Co., Ltd., priority 2022, published 2026).

Tests used:
[1] = system: AsPC-1 cells (K-Ras G12D)

For `C#Cc1c(F)ccc2cc(N)cc(-c3c(Cl)c4c5c(nc(OC[C@@]67CCCN6C[C@H](F)C7)nc5c3F)N3CCCOC[C@H]3CO4)c12` [Compound 11], which IC50 [1] is on record?
Its IC50 is 583 nM.

What about the IC50 (SW620 cells (K-Ras G12V)) of the same compound?
Its IC50 is 93.4 nM.
